Experimental findings from PMC12136788 are described below.

Sequences and labels used below:
B1: chr3:122573770:122573871:+|3pUTR|ENSG00000163840|msi1|total|mutant (ssRNA)
RNA: GGGAGUUCUACAGUCCGACGAUCUAUUGGGUGCACUUGCCCUGCCACAGUAAUGCUAUAUAUUUCUGAGCAUUGUUUUUCUCCCGAUAAUUUUAUAUUUUUGAGUAUACCCCACUUCCAAGUGUUUUUUGUUUUGUUUUGCUUCAACAGAGGAUUGAGCAUCA
B2: chr10:50305585:50307321:-|three_prime_utr|ENSG00000198964|control|control|control (ssRNA)
RNA: GGGAGUUCUACAGUCCGACGAUCUGAAAAGAAUGUCCAAGGAAUUGUACCUCGAUCUUACCAUUGGCCUUUCCCCUGGCCAGUAGUCCACCUCAGUAGGCAAGUUAAAUACAGCCGGCUGGUGAAUGACACAUAACAGCUGUACAACAGAGGAUUGAGCAUCA
B3: chr7:7607225:7607326:+|3pUTR|ENSG00000164654|msi1|total|mutant (ssRNA)
RNA: GGGAGUUCUACAGUCCGACGAUCUUUGAGUGAUUUUGAUAUGCUUCACAGAGACAAAUGCUGCCAAAAUAAACAUCGAAGUACCGACAUGAGUUCUGUUCAGCAGGUUGAAAAGUCUGAUUCCGAAAAACUUUCUAAGUUUUGCAACAGAGGAUUGAGCAUCA
B4: ENSG00000134243:stop:overlap|stop_codon|ENSG00000134243|stop_codon|NA|stop_codon (ssRNA)
RNA: GGGAGUUCUACAGUCCGACGAUCCAGCCUCCCACACUAAUAAAAGUGGUUAUCAUGAUGACUCAGAUGAGGACCUCUUGGAAUAGCUCUUCAGAGGAGCUGGACCCAGCAUGGAUGGUGGAACCACAGUACCUCUUACACUCCCAACAGAGGAUUGAGCAUCA
B5: chr2:30158716:30158817:+|CDS|ENSG00000119801|msi1|FALSE|bound_elsewhere (ssRNA)
RNA: GGGAGUUCUACAGUCCGACGAUCGUUUGCCACUGAAGACAGCCAGCGAUAUAAGGAAGGCCGCGUGAUCCUGGAACGUGCUCUAGUUCGAGAGAGUGAGGGCUUUGAGGAGCAUGUACCAUCUGAUAACUCUUGAAGAUACAGCAACAGAGGAUUGAGCAUCA
B6: chr16:11691289:11692082:-|CDS|ENSG00000153066|control|control|control (ssRNA)
RNA: GGGAGUUCUACAGUCCGACGAUCCCAAGCUCCGUUCCUCACAUUGAGGAGAACAGGUAUCUCUUUCCAGAAGUGGACAUGACUAGCACAAACUUCACAGGCCUGAGCUGCAGAACCAACAAGACUCUCAACAUCUACCUUUUGCAACAGAGGAUUGAGCAUCA
B7: chr10:37831617:37833116:-|CDS|ENSG00000198105|control|control|control (ssRNA)
RNA: GGGAGUUCUACAGUCCGACGAUCCAUCAGAGGACUCACACAGGGGAGAAGCCGUAUGAGUGUAAUGCAUGUGGGAAGACCUUUAGUCAGAGGUCAGUGCUCACCAAACAUCAGAGAAUUCACACAAGGGUGAAAGCUCUUUCACAACAGAGGAUUGAGCAUCA
B8: chr3:52708059:52708100:+|3pUTR|ENSG00000114902|msi1_unk|FALSE|overlapping (ssRNA)
RNA: GGGAGUUCUACAGUCCGACGAUCACACAAGUAUGAAGUUUCUUUCAGGUGUAAAUAAUGAAAAAUAAAUGCCUCAUAAAUGAUAGUACAAUGUAACUAUCAAAGUUUUAUAAUUCAUUAUGAGUUAACCAUUUUAAUGUUUCCCAACAGAGGAUUGAGCAUCA
B9: chr19:33301014:33301115:-|3pUTR|ENSG00000245848|unk|FALSE|unique (ssRNA)
RNA: GGGAGUUCUACAGUCCGACGAUCUCCCUGCGAGGAGGGGAGAAUUCUUGGGGCUGAGCUGGGAGCCCGGCAACUCUAGUAUUUAGGAUAACCUUGUGCCUUGGAAAUGCAAACUCACCGCUCCAAUGCCUACUGAGUAGGGGGCAACAGAGGAUUGAGCAUCA
B10: chr16:2602459:2602560:+|3pUTR|ENSG00000140992|msi1|total|mutant (ssRNA)
RNA: GGGAGUUCUACAGUCCGACGAUCAACUAUGUACAGAGAACUUUUUACAAAAGGCAGACCUUUUUUAAGCUGUGUAACCCACACCGCCUAACCACCUGGCAGAAUGACUACGAACCGGGGUCAUUGUGCUGGUAAAAGCCUCUACAACAGAGGAUUGAGCAUCA
B11: chr15:78283234:78283431:-|three_prime_utr|ENSG00000140395|control|control|control (ssRNA)
RNA: GGGAGUUCUACAGUCCGACGAUCUCUCCAGGCUUAUGCUGCAAAGAGAAUGUACGGAUUGAUCAUGACAUUCCUUACCUUCUUAGGCUUGUUUAAAAGAAAUAUAGCAUUUAUUGUAGCAAAGACUUAAAUUUUGUAGAUACACAACAGAGGAUUGAGCAUCA
B12: chr16:70532473:70532607:+|CDS|ENSG00000189091|unk|FALSE|bound_elsewhere (ssRNA)
RNA: GGGAGUUCUACAGUCCGACGAUCCAAUGAUCCAACAGGGGAAGCAGCAGCUAAUACCCAGCAGACACUUACUUUCUAUGAGCUAGACCUUGGUUUAAAUCAUGUGGUCCGAAAAUACAGUGAACCUUUGGAGGAACACGGCAACAACAGAGGAUUGAGCAUCA
B13: chr2:1632960:1633155:-|3pUTR|ENSG00000130508|msi1|FALSE|unique (ssRNA)
RNA: GGGAGUUCUACAGUCCGACGAUCGUCCAUUUUUUAGGUAUUAGAUAUGGCAGAAAAACCAUUUCCACUAUGCAAAGUUCUUUUAGACGUCAGUGAAAAUCAACUCUCAUACCUCAUGGUCUCUCUUUAAUUGACCAAAACCUUCAACAGAGGAUUGAGCAUCA
B14: chr12:96953524:96953626:+|3pUTR|ENSG00000139350|unk|total|mutant (ssRNA)
RNA: GGGAGUUCUACAGUCCGACGAUCCUUUUUUAAAAAAAUAAAUACACAUAAUGUAUAUUAAAAGAGGUGGGAUGAAAUAAUUUCCGUAAUUAUGUGUACAGAUGAAACAUUUUUGUCAUGGAAUUUAAAAGCUAAGUAAGUAUACAACAGAGGAUUGAGCAUCA

This is one part of the list.

The assay has as its target MSI1 full-length (mouse, UniProt Q61474 1-362). The experiment in a line: nsRBNS (natural sequence RNA bind-n-seq); RBNS binding buffer (assumed for nsRBNS): 25 mM Tris pH 7.5, 150 mM KCl, 3 mM MgCl2, 0.01% Triton X-100, 500 ug/ml BSA, 20 U/ml SUPERase-In, 4 C; UNK is unkempt and MSI1 is Musashi-1; names of the RNAs are library labels; protein concentration not given here; high values mean tight binding.
Chain of UniProt Q61474 (Q61474 whole entry): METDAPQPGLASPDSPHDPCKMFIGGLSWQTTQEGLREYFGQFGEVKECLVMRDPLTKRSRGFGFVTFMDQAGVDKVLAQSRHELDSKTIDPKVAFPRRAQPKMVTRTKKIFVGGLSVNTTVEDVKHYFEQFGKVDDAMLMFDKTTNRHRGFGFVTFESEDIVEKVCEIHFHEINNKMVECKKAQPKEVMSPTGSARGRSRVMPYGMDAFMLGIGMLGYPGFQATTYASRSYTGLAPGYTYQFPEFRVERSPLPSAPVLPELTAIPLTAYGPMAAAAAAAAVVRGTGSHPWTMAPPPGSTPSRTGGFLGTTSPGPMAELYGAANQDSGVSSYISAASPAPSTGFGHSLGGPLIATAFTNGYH
B1 registered a binding signal of 5.59 enrichment R.
With B2 the figure was 0.421 enrichment R; with B3, 0.249 enrichment R.
With B4 the figure was 0.54 enrichment R.
With B5 the figure was 0.47 enrichment R.
The molecule B6 returned a binding signal of 0.721 enrichment R.
The same measure for B7: 0.582 enrichment R.
B8 registered a binding signal of 0.579 enrichment R.
The same measure for B9: 2.63 enrichment R; for B10: 0.378 enrichment R; for B11: 13.8 enrichment R.
In the case of B12, the binding signal was 0.48 enrichment R.
Consider B13, for which the binding signal amounted to 2.36 enrichment R.
The same measure for B14: 4.23 enrichment R.
